± gives the standard error. This is one part of the list.
Each sequence was assayed against terminal deoxynucleotidyl transferase (calf thymus) (UniProt P06526) (assay: TdT poly-dT extension signal (Cy3 hybridisation fluorescence, uncapped minus capped) (fluorescence a.u.); higher = more efficient initiation of TdT extension). Settings: initiator chemistry: L-DNA (mirror-image), free 5'-OH (3'-tethered via HEG linker).
Protocol: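 All mono- to pentamer D-DNA or L-DNA initiators were made by forward (3'->5') photolithographic in situ synthesis on glass on a hexaethylene glycol linker, leaving a free 5'-OH. Each was made in uncapped and DMTr-dT-capped versions, about 11 replicates each. Arrays were extended with calf thymus TdT (0.2 U/uL), 100 uM dTTP and 0.25 mM CoCl2 for 120 min at 37 C, hybridised with an rA18-Cy3 probe and scanned at 532 nm. The value is the mean uncapped minus the mean capped signal. IDs read 5'->3'. L-DNA is mirror-image; D-DNA 5'-OH initiators were below LOD (no extension).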

UniProt P06526, sequence (P06526 whole entry): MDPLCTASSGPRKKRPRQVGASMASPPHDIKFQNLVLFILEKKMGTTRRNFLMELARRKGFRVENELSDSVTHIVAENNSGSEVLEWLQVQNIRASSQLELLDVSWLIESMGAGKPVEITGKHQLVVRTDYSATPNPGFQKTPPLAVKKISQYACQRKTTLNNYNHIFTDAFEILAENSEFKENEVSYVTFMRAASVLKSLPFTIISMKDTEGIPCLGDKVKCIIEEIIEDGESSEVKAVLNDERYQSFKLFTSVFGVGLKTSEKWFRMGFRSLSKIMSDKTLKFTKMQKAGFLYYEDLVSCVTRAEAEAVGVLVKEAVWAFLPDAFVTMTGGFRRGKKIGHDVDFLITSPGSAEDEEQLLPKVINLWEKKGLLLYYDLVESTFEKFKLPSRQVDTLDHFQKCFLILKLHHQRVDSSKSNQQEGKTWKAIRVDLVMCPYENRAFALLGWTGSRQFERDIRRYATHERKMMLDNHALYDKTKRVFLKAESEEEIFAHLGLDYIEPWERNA

Sequence | TdT poly-dT extension signal
ATACC | 171 ± 18
TTGCC | 229 ± 20
CAGT | 38.8 ± 5.3
TGCCA | 130 ± 11
TTAT | 340 ± 30
TGTTC | 108 ± 11
ATGGA | 155 ± 10
GCATA | 67.9 ± 7
AATG | 74.3 ± 5.6
CGTTA | 41.1 ± 5.7
GTGAA | 142 ± 17
TACGA | 194 ± 14
CACTT | 59.1 ± 7.1
TAGCC | 105 ± 7.2
GTCGC | 137 ± 12
GAGG | 59.6 ± 4.4
AACCG | 80.8 ± 9.2
AAAA | 101 ± 5.7
TCACA | 190 ± 19
ATTCA | 139 ± 13
GATCG | 77.2 ± 8
CGAGG | 82.9 ± 7.5
TTCG | 284 ± 31
CTTGA | 148 ± 14

Sequence | TdT poly-dT extension signal
GGCTT | 54.7 ± 4.6
ATCCA | 153 ± 10
CAAGC | 70.2 ± 6.8
AAGT | 44.3 ± 6.8
GCGTC | 60.1 ± 6.2
AAATT | 109 ± 9.2
TATGG | 167 ± 18
GAGAC | 59.5 ± 6.4
GCGT | 48.6 ± 8.4
TAATA | 210 ± 15
ATTAA | 201 ± 20
CTTCT | 109 ± 9.2
CTAGC | 134 ± 8.7
CGATT | 52.3 ± 5.7
TACA | 178 ± 8
GGTTC | 46.3 ± 6.5
TACCG | 150 ± 11
GAATG | 89 ± 9.9
CTTGG | 163 ± 10
AGCAC | 50 ± 4.6
GGGCT | 74.1 ± 12
CGCCT | 48.4 ± 5.6
GGGGA | 88.4 ± 13
CACTC | 62.4 ± 8

Sequence | TdT poly-dT extension signal
CCGTT | 57.2 ± 6.1
CCCAC | 106 ± 10
TATC | 171 ± 12
ATCAA | 236 ± 13
GCTTA | 68.9 ± 7
CGCGA | 66.2 ± 6
CGTG | 42.7 ± 6.1
TGGT | 100 ± 8.5
ACCCG | 76.1 ± 6.5
CGCC | 63.3 ± 6.2
CACA | 64.8 ± 7.9
CGGAG | 58.9 ± 7.1
CGCAT | 56.7 ± 7.8
TGCTG | 140 ± 8.4
CAATA | 91.3 ± 9.7
GATCC | 70.6 ± 8.6
TTAGT | 368 ± 28
GGGTA | 47.1 ± 6.2
ACTTC | 66.4 ± 5
ATTA | 165 ± 11
TTCAA | 388 ± 29
GGTTG | 53.8 ± 8.5
TTCCG | 388 ± 25
TTGAT | 314 ± 27

Sequence | TdT poly-dT extension signal
ATAGC | 182 ± 14
AACG | 74.9 ± 8.3
CTCAC | 130 ± 12
GTAAA | 239 ± 15
GGAAA | 76.7 ± 7.8
AAACC | 73.6 ± 7.5
TCTTC | 142 ± 12
CCAAA | 122 ± 7.3
AATCC | 60.8 ± 6.7
AACGC | 83.5 ± 7
ATACG | 188 ± 13
TCGTG | 120 ± 7.7
GTGAT | 121 ± 12
TAACA | 181 ± 12
TTTTC | 242 ± 27
ATATA | 192 ± 12
GGAAC | 95.4 ± 8.1
CCCGC | 84.8 ± 7.3
AGACA | 50.8 ± 8.3
CATTT | 66.2 ± 6.7
GTTTT | 125 ± 8.3
TAGAC | 117 ± 15
CGAGA | 71.9 ± 6.6
CGGGG | 91.1 ± 10

Sequence | TdT poly-dT extension signal
TCTCT | 347 ± 200
GTATT | 158 ± 10
TGGCT | 113 ± 11
GGACG | 73.6 ± 7.5
ATATC | 192 ± 14
CCCCC | 100 ± 6.9
TACAC | 145 ± 17
CAAAC | 86.8 ± 10
AGGC | 36.1 ± 5.6
AACAC | 95.3 ± 8.9
TCACG | 181 ± 12
ATTCG | 127 ± 10
CATCC | 52.2 ± 5.7
TAAGC | 144 ± 10
TGCCC | 133 ± 18
GTACA | 152 ± 8.5
AAGCC | 44.4 ± 4.9
TCGTA | 115 ± 10
CTAA | 170 ± 12
CCGAA | 89.7 ± 6.6
ATTG | 140 ± 12
TGATC | 198 ± 14
TAAG | 161 ± 15
GAAAC | 97.6 ± 6.6

Sequence | TdT poly-dT extension signal
CACAT | 63.2 ± 10
AGGTT | 33.1 ± 7.5
CAGAG | 71.3 ± 6.3
ACAAT | 93.6 ± 7.7
GGGA | 68.4 ± 14
ATAAA | 276 ± 19
CTGC | 102 ± 11
AATTT | 76.9 ± 8.6
AAATC | 71.7 ± 7.2
TGACT | 166 ± 11
GGTC | 61.6 ± 6.6
CTCTA | 130 ± 12
ACCC | 45.2 ± 10
TGTAT | 145 ± 6.2
ATCTG | 143 ± 16
TACTA | 180 ± 15
AGCT | 55.2 ± 6.6
TGCTT | 131 ± 9.6
TGATA | 170 ± 12
TCTAC | 165 ± 11
ATGAC | 136 ± 12
GTTTG | 135 ± 8.7
CAGGA | 50.6 ± 4.4
GGCGT | 61.2 ± 7.4

Sequence | TdT poly-dT extension signal
AGCTG | 46.2 ± 5
GTTG | 115 ± 11
CATA | 73.2 ± 8.1
GATGG | 94.1 ± 6.2
AAGG | 44.8 ± 6.2
CCTGA | 96.8 ± 7.2
CGCCA | 56.1 ± 4.7
TAGGG | 126 ± 8
CCCTC | 82.2 ± 7.4
GAACT | 66.5 ± 9.6
CGATC | 71.4 ± 6.2
AGTA | 44.2 ± 4.4
TCATA | 211 ± 17
AGCGA | 54.6 ± 4.6
TTTAC | 344 ± 22
CCTA | 84.4 ± 13
ACGAA | 76.9 ± 4.9
ACGTC | 47.1 ± 4.9
TTTG | 264 ± 15
AGCAT | 61.6 ± 5.9
GCCTC | 74.3 ± 12
TAAGG | 172 ± 10
CTGCA | 109 ± 8.5
CCGCA | 75.1 ± 7.1

Sequence | TdT poly-dT extension signal
CACGC | 57.6 ± 5.8
TGGC | 106 ± 7.5
CGACG | 73.6 ± 5.2
AGGAC | 56.2 ± 5.2
CGTTC | 51.2 ± 6.6
CATC | 73.9 ± 8.5
ATTC | 136 ± 9.9
GAGT | 55.3 ± 6.4
TCTGG | 169 ± 11
TCCAC | 220 ± 17
GGCGA | 68.7 ± 4.6
GATA | 84.4 ± 9.1
TGTT | 120 ± 4.8
CTGA | 130 ± 12
GGTCC | 37.8 ± 6.6
ACTGA | 68.6 ± 8.3
ATCCT | 126 ± 9
TGCGT | 133 ± 9.2
CTTAT | 106 ± 7.6
ATCGG | 198 ± 12
CAAG | 59.4 ± 8.9
TGCT | 123 ± 9.8
CCACT | 90 ± 7.8
GTCTT | 128 ± 8

Sequence | TdT poly-dT extension signal
AAAGG | 84.3 ± 8.4
GCAAT | 88 ± 9.8
TGTAC | 140 ± 10
CCTCA | 78.7 ± 8.6
GGGTT | 75.3 ± 6.3
GCACG | 87 ± 5.5
GGCAA | 78.8 ± 10
GGCAG | 78.3 ± 10
AACTC | 74.5 ± 9.7
AACGA | 86 ± 7.7
TCACC | 162 ± 5.5
GTGCT | 95.1 ± 10
TTGCA | 228 ± 14
CGGTC | 31.7 ± 5.1
CCGTA | 63.1 ± 6.5
GATTC | 59.6 ± 8.6
TAGGA | 123 ± 9.3
GCAG | 59.8 ± 6.3
TCAGT | 140 ± 11
GGGTG | 69.1 ± 4.3
AGGGA | 47.7 ± 5.1
GACAG | 89.7 ± 6.3
AGAC | 62.2 ± 6.1

Reference: the supplement of paper PMC8291772
